Laboratory results as given in the supplement of paper PMC8728848.
The list shows a part of the results.

Experiments:
Assay in all cases: glycan array binding signal (z-score within array); higher = stronger binding
Conditions in all cases: glycan notation: IUPAC condensed, linker removed
[1] = target: Gal(b1-4)GlcNAc(b1-3)Gal(b1-4)GlcNAc(b1-6)[Gal(b1-3)]GalNAc
Method in brief: (§1)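 Negative Z-scores can be read as non-binding. The Z-score is calculated within each array and then averaged across arrays of one protein sequence at different concentrations or buffers and across linkers. Arrays, 3228 in all, were curated from the Consortium for Functional Glycomics database and kept only where the protein sequence was available.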

[2] = target: Gal(b1-4)GlcNAc(b1-3)Gal(b1-4)[Fuc(a1-3)]GlcNAc(b1-3)Gal(b1-4)[Fuc(a1-3)]GlcNAc
Method in brief: as §1

[3] = target: Gal(b1-4)GlcNAc(b1-3)GalNAc
Method in brief: as §1

[4] = target: Gal(b1-4)GlcNAc(b1-3)[Fuc(a1-3)GlcNAc(b1-6)]Gal(b1-4)Glc
Method in brief: as §1

[5] = target: Gal(b1-4)GlcNAc(b1-3)[Gal(b1-4)GlcNAc(b1-6)]Gal(b1-4)GlcNAc
Method in brief: as §1

[6] = target: Gal(b1-4)GlcNAc(b1-3)[GlcNAc(b1-6)]Gal(b1-4)GlcNAc
Method in brief: as §1

[7] = target: Gal(b1-4)GlcNAc(b1-6)Gal(b1-4)GlcNAc
Method in brief: as §1

[8] = target: Gal(b1-4)GlcNAc(b1-6)GalNAc
Method in brief: as §1

[9] = target: Gal(b1-4)GlcNAc(b1-6)[Gal(b1-3)]GalNAc
Method in brief: as §1

[10] = target: Gal(b1-4)GlcNAc(b1-6)[Gal(b1-4)GlcNAc(b1-3)]GalNAc
Method in brief: as §1

Gal(b1-4)GlcNAc6P = target: Gal(b1-4)GlcNAc6P
Method in brief: as §1

Gal(b1-6)Gal = target: Gal(b1-6)Gal
Method in brief: as §1

Gal3S(b1-3)GalNAc = target: Gal3S(b1-3)GalNAc
Method in brief: as §1

Gal3S(b1-3)GlcNAc = target: Gal3S(b1-3)GlcNAc
Method in brief: as §1

[11] = target: Gal3S(b1-3)[Fuc(a1-4)]GlcNAc
Method in brief: as §1

Gal3S(b1-4)Glc = target: Gal3S(b1-4)Glc
Method in brief: as §1

Gal3S(b1-4)Glc6S = target: Gal3S(b1-4)Glc6S
Method in brief: as §1

Gal3S(b1-4)GlcNAc = target: Gal3S(b1-4)GlcNAc
Method in brief: as §1

[12] = target: Gal3S(b1-4)[Fuc(a1-3)]Glc6S
Method in brief: as §1

[13] = target: Gal3S(b1-4)[Fuc(a1-3)]GlcNAc
Method in brief: as §1

[14] = target: Gal3S(b1-4)[Fuc(a1-3)]GlcNAc6S
Method in brief: as §1

Gal3S4S(b1-4)GlcNAc = target: Gal3S4S(b1-4)GlcNAc
Method in brief: as §1

Gal3S6S(b1-4)GlcNAc = target: Gal3S6S(b1-4)GlcNAc
Method in brief: as §1

Gal3S6S(b1-4)GlcNAc6S = target: Gal3S6S(b1-4)GlcNAc6S
Method in brief: as §1

Gal4S(b1-4)GlcNAc = target: Gal4S(b1-4)GlcNAc
Method in brief: as §1

Gal4S6S(b1-4)GlcNAc = target: Gal4S6S(b1-4)GlcNAc
Method in brief: as §1

Gal6P(b1-4)GlcNAc = target: Gal6P(b1-4)GlcNAc
Method in brief: as §1

Gal6S(b1-3)GlcNAc = target: Gal6S(b1-3)GlcNAc
Method in brief: as §1

Gal6S(b1-3)GlcNAc6S = target: Gal6S(b1-3)GlcNAc6S
Method in brief: as §1

Gal6S(b1-4)Glc = target: Gal6S(b1-4)Glc
Method in brief: as §1

Gal6S(b1-4)Glc6S = target: Gal6S(b1-4)Glc6S
Method in brief: as §1

Gal6S(b1-4)GlcNAc = target: Gal6S(b1-4)GlcNAc
Method in brief: as §1

Gal6S(b1-4)GlcNAc6S = target: Gal6S(b1-4)GlcNAc6S
Method in brief: as §1

GalNAc(a1-3)Gal = target: GalNAc(a1-3)Gal
Method in brief: as §1

GalNAc(a1-3)GalNAc = target: GalNAc(a1-3)GalNAc
Method in brief: as §1

[15] = target: GalNAc(a1-3)GalNAc(b1-3)Gal(a1-4)Gal(b1-4)Glc
Method in brief: as §1

[16] = target: GalNAc(a1-3)GalNAc(b1-3)Gal(a1-4)Gal(b1-4)GlcNAc
Method in brief: as §1

GalNAc(b1-3)Gal = target: GalNAc(b1-3)Gal
Method in brief: as §1

[17] = target: GalNAc(b1-3)Gal(a1-4)Gal(b1-4)GlcNAc
Method in brief: as §1

[18] = target: GalNAc(b1-3)Gal(a1-4)Gal(b1-4)GlcNAc(b1-3)Gal(b1-4)Glc
Method in brief: as §1

[19] = target: GalNAc(b1-3)Gal(a1-6)Gal(b1-4)Glc
Method in brief: as §1

GalNAc(b1-3)GalNAc = target: GalNAc(b1-3)GalNAc
Method in brief: as §1

GalNAc(b1-3)GlcNAc = target: GalNAc(b1-3)GlcNAc
Method in brief: as §1

GalNAc(b1-4)Gal(b1-4)Glc = target: GalNAc(b1-4)Gal(b1-4)Glc
Method in brief: as §1

GalNAc(b1-4)GlcNAc = target: GalNAc(b1-4)GlcNAc
Method in brief: as §1

B1: HPL (Tachypleus tridentatus) (protein)
chain: MEDDCTCVTDRSLEGKLMKHPSTPAVYQILDGCRRLVPNPPTYNNIYKNWECIQSNILEKLLCKCDSLSNGAELIKGSGDTVYLLSNGVKRPIADPETFNGFCFDWNKIKTYSDIVINSLSTGPIIIIKHHHHHH
glycan array binding signal (z-score) [1]: 0.388
glycan array binding signal (z-score) [2]: -0.174
glycan array binding signal (z-score) [3]: -0.245
glycan array binding signal (z-score) [4]: -0.376
glycan array binding signal (z-score) [5]: -0.277
glycan array binding signal (z-score) [6]: 0.962
glycan array binding signal (z-score) [7]: -0.232
glycan array binding signal (z-score) [8]: -0.074
glycan array binding signal (z-score) [9]: -0.066
glycan array binding signal (z-score) [10]: -0.188
glycan array binding signal (z-score) (Gal(b1-4)GlcNAc6P): -0.16
glycan array binding signal (z-score) (Gal(b1-6)Gal): -0.048
glycan array binding signal (z-score) (Gal3S(b1-3)GalNAc): -0.22
glycan array binding signal (z-score) (Gal3S(b1-3)GlcNAc): -0.3
glycan array binding signal (z-score) [11]: -0.123
glycan array binding signal (z-score) (Gal3S(b1-4)Glc): -0.001
glycan array binding signal (z-score) (Gal3S(b1-4)Glc6S): -0.156
glycan array binding signal (z-score) (Gal3S(b1-4)GlcNAc): -0.263
glycan array binding signal (z-score) [12]: -0.177
glycan array binding signal (z-score) [13]: -0.435
glycan array binding signal (z-score) [14]: -0.32
glycan array binding signal (z-score) (Gal3S4S(b1-4)GlcNAc): -0.38
glycan array binding signal (z-score) (Gal3S6S(b1-4)GlcNAc): -0.269
glycan array binding signal (z-score) (Gal3S6S(b1-4)GlcNAc6S): -0.361
glycan array binding signal (z-score) (Gal4S(b1-4)GlcNAc): -0.337
glycan array binding signal (z-score) (Gal4S6S(b1-4)GlcNAc): -0.388
glycan array binding signal (z-score) (Gal6P(b1-4)GlcNAc): -0.049
glycan array binding signal (z-score) (Gal6S(b1-3)GlcNAc): -0.073
glycan array binding signal (z-score) (Gal6S(b1-3)GlcNAc6S): -0.271
glycan array binding signal (z-score) (Gal6S(b1-4)Glc): 0.021
glycan array binding signal (z-score) (Gal6S(b1-4)Glc6S): -0.101
glycan array binding signal (z-score) (Gal6S(b1-4)GlcNAc): -0.335
glycan array binding signal (z-score) (Gal6S(b1-4)GlcNAc6S): -0.426
glycan array binding signal (z-score) (GalNAc(a1-3)Gal): -0.416
glycan array binding signal (z-score) (GalNAc(a1-3)GalNAc): -0.454
glycan array binding signal (z-score) [15]: -0.412
glycan array binding signal (z-score) [16]: -0.325
glycan array binding signal (z-score) (GalNAc(b1-3)Gal): -0.195
glycan array binding signal (z-score) [17]: -0.223
glycan array binding signal (z-score) [18]: -0.261
glycan array binding signal (z-score) [19]: -0.402
glycan array binding signal (z-score) (GalNAc(b1-3)GalNAc): -0.385
glycan array binding signal (z-score) (GalNAc(b1-3)GlcNAc): -0.192
glycan array binding signal (z-score) (GalNAc(b1-4)Gal(b1-4)Glc): 1
glycan array binding signal (z-score) (GalNAc(b1-4)GlcNAc): -0.208
